Source: PubChem BioAssay AID1347043 (National Center for Advancing Translational Sciences (NCATS), 2019)
Hit rate of the full screen: of about 76,000 compounds, about 1,900 (2.5%) were called active. Inconclusive means that the source gave no clear call. Such entries were picked first, then a sample of the others. The call rests on the fitted dose curve; in most records, active means well fitted inhibition curve with a large enough effect; inconclusive means small, poorly fitted or top-dose-only effect; inactive means flat fitted curve, though single readings scatter. Potencies beside an inconclusive call are fits to weak or partial responses and may not hold up.

The molecules below were run against Luciferin 4-monooxygenase (Photinus pyralis) (UniProt P08659) (assay: Firefly luciferase inhibition profiling of diverse chemical library using quantitative high-throughput screening). Settings: purified P. pyralis luciferase, luminescence, biochemical; activity change, negative = inhibition: at 115 µM (top of the series) unless noted.
UniProt P08659, sequence (P08659 whole entry, looked up): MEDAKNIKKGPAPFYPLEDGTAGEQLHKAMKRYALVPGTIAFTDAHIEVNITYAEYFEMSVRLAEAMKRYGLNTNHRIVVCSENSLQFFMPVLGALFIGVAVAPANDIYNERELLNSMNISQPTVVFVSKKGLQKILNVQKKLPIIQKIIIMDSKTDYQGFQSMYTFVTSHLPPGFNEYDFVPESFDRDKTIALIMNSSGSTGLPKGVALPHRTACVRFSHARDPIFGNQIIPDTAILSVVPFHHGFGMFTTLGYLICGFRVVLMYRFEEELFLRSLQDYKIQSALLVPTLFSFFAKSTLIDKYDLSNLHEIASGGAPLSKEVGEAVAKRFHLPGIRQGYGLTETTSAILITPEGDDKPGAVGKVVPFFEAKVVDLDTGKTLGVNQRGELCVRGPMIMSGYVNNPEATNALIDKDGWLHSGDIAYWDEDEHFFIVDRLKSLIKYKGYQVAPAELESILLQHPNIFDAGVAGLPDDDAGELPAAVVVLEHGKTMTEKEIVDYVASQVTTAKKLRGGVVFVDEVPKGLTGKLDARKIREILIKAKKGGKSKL
Method in brief: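 Biochemical qHTS: compound (6-point titration) added to 10uM D-luciferin plus 10uM ATP in Tris acetate pH 7.5 buffer with Mg, Tween-20 and BSA, then purified enzyme at 10nM; light output imaged.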
Further: nearly all actives have a fitted effect of over 65% in size.
On the % scale 0 is the no-effect control and ±100 the full control effect; potency means the concentration at half of the fitted maximal effect; tags describe the fitted curve by direction and shape.

| SMILES | Potency | activity change, negative = inhibition |
| --- | --- | --- |
| O=C(NC1CC1)[C@@H]1C[C@H](Oc2ccccc2)CN1C(=O)c1cc2ccccc2[nH]1 | inconclusive: 12.6 µM [inhibitor, full curve, poor fit] |  |
| CN(C)c1cccc(C(=O)NC2CCN(c3cc(-c4ccccc4)[nH]n3)C2)c1 (stereo not drawn) | active: 7.08 µM |  |
| OC1CCN(c2cc(N3CCOC(c4ccc(F)cc4)C3)ncn2)CC1 (stereo not drawn) | inconclusive: 39.8 µM [inhibitor, full curve] |  |
| CCOCCCNC(=O)N1CC(Oc2cccc(-c3nc(C)no3)c2)C1 |  | inactive: 0% |
| CCCc1nnc(C[C@@H]2C[C@@H](C(C)C)[C@H](CN3CC[C@H](NC(C)=O)C3)C=C2C)o1 |  | inactive: 9.93% [at 172 µM] |
| COc1ccc(C2Cn3cnc(C(=O)N4CCC(C(=O)Nc5ccc(F)cc5)CC4)c3CO2)cc1 (stereo not drawn) | inconclusive: 56.2 µM [inhibitor, partial curve, poor fit] |  |
| CCc1noc(-c2cn(C3CCN(C(=O)C(C)c4ccccc4)CC3)nn2)n1 (stereo not drawn) |  | inactive: 7.77% |
| CCOc1ccc(C(=O)NC2CCCN(c3cc(-c4ccc(OC)cc4)[nH]n3)C2)cc1 (stereo not drawn) | inconclusive: 3.98 µM [inhibitor, full curve] |  |
| COc1cccc(NC(=O)c2cnc3c(c2)N(C(=O)Cc2ccccc2OC)CCC3)c1 | inconclusive: 63.1 µM [inhibitor, partial curve] |  |
| CCCn1ccc2oc(C)c(C(=O)NCc3ccc(CC)cc3)c2c1=O | inconclusive: 39.8 µM [inhibitor, partial curve] |  |
| O=C(Nc1ccccc1)c1cc2n(n1)CCN(C(=O)COc1ccccc1)C2 | inconclusive: 44.7 µM [inhibitor, partial curve] |  |
| CCCNc1cc(N2CCC(CCC(=O)Nc3cc(C)ccc3OC)CC2)ncn1 | inconclusive: 44.7 µM [inhibitor, partial curve] |  |
| O=C1CC2(CCN(CC3CCCCC3)CC2)Oc2cc(Cl)ccc21 | inconclusive: 50.1 µM [inhibitor, partial curve, poor fit] |  |
| Cc1ccc(-n2nc(C)c([C@H]3C=C[C@@H](O)C3)c2C)cc1Cl | active: 1.12 µM |  |
| CN(Cc1cccnc1)C1CN(C(=O)C2CCCCC2)C1 | inconclusive: 50.1 µM [inhibitor, partial curve, poor fit] |  |
| COc1ccccc1CNC(=O)C1CCN(C(=O)c2ncn3c2COC(c2ccccc2)C3)CC1 (stereo not drawn) | active: 12.6 µM |  |
| COCCN(C)C(=O)c1nc2nc(-c3ccccc3)c(Cl)cc2n1C | inconclusive: 70.8 µM [inhibitor, partial curve, poor fit] |  |
| O=C(Nc1cccnc1)c1nc2c(o1)CCN(Cc1ccc(F)c(F)c1)CC2 | active: 70.8 µM |  |
